Data on 13 sequences can be found in PMC5700166.

The entries are a selection whose mix differs from that of the whole data set. The list includes weakly bound sequences.

Experiment in all cases: protein-binding microarray (PBM)
Holding throughout (conditions): PBM: ~300 nM protein, 6 mM HEPES pH 7.8, 80 mM KCl, 0.5 mM EDTA, 0.5 mM EGTA, 6% glycerol, 35 ng/ul poly-dIdC, 1% milk, 1 h, room temperature; Ap Aiptasia and Nv Nematostella (sea anemones) / Co Capsaspora / Aq Amphimedon (sponge) / Dm Drosophila / Hu human; RHD is the Rel homology domain; high values mean tight binding; most listed sequences are background and not binding sites; double strand, one strand shown

One assay has as its target T1, GST-Ap-NF-kB RHD (UniProt A0A913YAJ5).
T1 sequence: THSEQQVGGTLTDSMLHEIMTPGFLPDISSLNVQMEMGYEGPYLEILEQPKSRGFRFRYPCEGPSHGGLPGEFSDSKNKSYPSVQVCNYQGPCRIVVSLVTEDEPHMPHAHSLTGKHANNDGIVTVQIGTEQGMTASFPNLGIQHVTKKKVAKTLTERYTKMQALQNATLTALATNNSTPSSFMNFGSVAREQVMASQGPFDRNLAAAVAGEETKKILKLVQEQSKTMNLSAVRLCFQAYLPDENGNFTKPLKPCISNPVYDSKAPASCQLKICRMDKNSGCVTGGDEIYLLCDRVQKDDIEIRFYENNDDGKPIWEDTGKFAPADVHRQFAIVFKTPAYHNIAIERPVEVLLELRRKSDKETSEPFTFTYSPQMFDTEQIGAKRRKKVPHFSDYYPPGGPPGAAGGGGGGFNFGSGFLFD

The target in assay [1] is T2, GST-Nv-NF-kB (Cys allele) (UniProt E5G601).
T2 sequence: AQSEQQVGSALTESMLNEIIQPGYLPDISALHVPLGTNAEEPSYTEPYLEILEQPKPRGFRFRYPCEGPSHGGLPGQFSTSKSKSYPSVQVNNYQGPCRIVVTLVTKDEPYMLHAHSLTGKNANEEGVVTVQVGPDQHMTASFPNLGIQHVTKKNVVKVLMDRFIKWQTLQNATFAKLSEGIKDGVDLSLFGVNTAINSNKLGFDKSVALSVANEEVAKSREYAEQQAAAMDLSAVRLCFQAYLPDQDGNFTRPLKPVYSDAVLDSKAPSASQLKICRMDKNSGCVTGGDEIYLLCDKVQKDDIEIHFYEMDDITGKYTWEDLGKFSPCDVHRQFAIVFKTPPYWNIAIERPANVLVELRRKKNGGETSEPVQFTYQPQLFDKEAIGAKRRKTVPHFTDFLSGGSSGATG

A further assay deals with T3, GST-Co-NF-kB (UniProt F1ARL5).
T3 sequence: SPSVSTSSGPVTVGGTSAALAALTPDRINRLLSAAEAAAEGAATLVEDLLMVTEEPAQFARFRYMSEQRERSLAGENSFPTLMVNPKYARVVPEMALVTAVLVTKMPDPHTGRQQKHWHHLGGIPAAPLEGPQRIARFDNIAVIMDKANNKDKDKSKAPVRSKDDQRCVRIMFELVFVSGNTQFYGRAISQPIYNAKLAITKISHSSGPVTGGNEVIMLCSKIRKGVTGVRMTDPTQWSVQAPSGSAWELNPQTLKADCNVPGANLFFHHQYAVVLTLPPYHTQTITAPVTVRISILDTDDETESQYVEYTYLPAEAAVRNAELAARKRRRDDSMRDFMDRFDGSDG

The next assay deals with T4, GST-Dm-Relish (UniProt Q94527).
T4 sequence: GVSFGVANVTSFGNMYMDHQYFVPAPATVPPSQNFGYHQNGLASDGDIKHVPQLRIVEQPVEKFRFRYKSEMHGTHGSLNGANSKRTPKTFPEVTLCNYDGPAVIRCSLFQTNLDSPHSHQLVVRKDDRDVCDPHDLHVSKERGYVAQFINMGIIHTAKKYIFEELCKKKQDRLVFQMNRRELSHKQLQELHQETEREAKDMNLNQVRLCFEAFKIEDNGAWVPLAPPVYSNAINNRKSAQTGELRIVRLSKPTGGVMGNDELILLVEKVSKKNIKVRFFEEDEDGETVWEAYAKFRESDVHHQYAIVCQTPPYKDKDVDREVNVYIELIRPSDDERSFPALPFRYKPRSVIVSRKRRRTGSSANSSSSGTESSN

The target in another assay is T5, GST-Aq-NF-kB (UniProt A9Y5G7).
T5 sequence: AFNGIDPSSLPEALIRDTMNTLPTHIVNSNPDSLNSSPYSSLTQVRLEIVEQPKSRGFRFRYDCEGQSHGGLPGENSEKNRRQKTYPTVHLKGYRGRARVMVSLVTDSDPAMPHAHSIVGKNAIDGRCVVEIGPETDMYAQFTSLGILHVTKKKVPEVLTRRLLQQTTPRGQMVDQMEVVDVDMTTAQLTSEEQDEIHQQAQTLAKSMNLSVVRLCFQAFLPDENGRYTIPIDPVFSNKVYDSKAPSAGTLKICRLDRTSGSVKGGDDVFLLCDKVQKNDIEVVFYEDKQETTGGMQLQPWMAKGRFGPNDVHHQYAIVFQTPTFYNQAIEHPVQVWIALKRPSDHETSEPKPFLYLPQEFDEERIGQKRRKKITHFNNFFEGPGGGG

For “CCGATTAACATCACCTAGCACGATGATGTTAATCGGGTCTTGATTCGCTTGACGCTGCTG”, the binding signal with GST-Ap-NF-kB RHD was 0.0891 z-score; in assay [1] it was -0.315 z-score; with GST-Co-NF-kB, 0.556 z-score; with GST-Dm-Relish, 0.257 z-score; with GST-Aq-NF-kB, 0.339 z-score.

Regarding “CCGATTAACATCAACGACCATCTTGATGTTAATCGGGTCTTGATTCGCTTGACGCTGCTG”, the binding signal with GST-Ap-NF-kB RHD is -0.0485 z-score; in assay [1], -0.58 z-score; with GST-Co-NF-kB, -0.512 z-score; with GST-Dm-Relish, -1.14 z-score; with GST-Aq-NF-kB it was -0.615 z-score.

For “CCGATTAACATCATAGAGACACGTGATGTTAATCGGGTCTTGATTCGCTTGACGCTGCTG”, the binding signal in the assay with GST-Ap-NF-kB RHD was -0.367 z-score; in assay [1] it was -0.329 z-score; with GST-Co-NF-kB, 0.185 z-score; in the assay with GST-Dm-Relish it was -0.623 z-score; with GST-Aq-NF-kB it was -0.25 z-score.

On to “CCGATTAACATCAACAGACACAGTGATGTTAATCGGGTCTTGATTCGCTTGACGCTGCTG”, for which the binding signal is 0.187 z-score in the assay with GST-Ap-NF-kB RHD; 0.491 z-score in assay [1]; 0.478 z-score with GST-Co-NF-kB; 0.453 z-score in the assay with GST-Dm-Relish; -0.35 z-score with GST-Aq-NF-kB.

“CCGATTAACATCACCTCCGTATCTGATGTTAATCGGGTCTTGATTCGCTTGACGCTGCTG”: the binding signal was 0.402 z-score in the assay with GST-Ap-NF-kB RHD; 0.0999 z-score in assay [1]; 0.407 z-score with GST-Co-NF-kB; -0.353 z-score with GST-Dm-Relish; -0.095 z-score with GST-Aq-NF-kB.

For the sequence “CCGATTAACATCATACTAGTTCCTGATGTTAATCGGGTCTTGATTCGCTTGACGCTGCTG”, the binding signal with GST-Ap-NF-kB RHD was 0.244 z-score; in assay [1] it was -0.142 z-score; in the assay with GST-Co-NF-kB, 0.325 z-score; with GST-Dm-Relish, -0.364 z-score; with GST-Aq-NF-kB, -0.0916 z-score.

“CCGATTAACATCATAGAACTCGATGATGTTAATCGGGTCTTGATTCGCTTGACGCTGCTG”: the binding signal in the assay with GST-Ap-NF-kB RHD is -0.545 z-score; in assay [1], -0.426 z-score; with GST-Co-NF-kB, -0.352 z-score; with GST-Dm-Relish, -0.794 z-score; in the assay with GST-Aq-NF-kB it was -0.592 z-score.

For the sequence “CCGATTAACATCACACAAGGCGATGATGTTAATCGGGTCTTGATTCGCTTGACGCTGCTG”, the binding signal is -0.135 z-score in the assay with GST-Ap-NF-kB RHD; -0.955 z-score in assay [1]; 0.239 z-score with GST-Co-NF-kB; -0.0241 z-score with GST-Dm-Relish; -0.526 z-score in the assay with GST-Aq-NF-kB.

In the case of “CCGATTAACATCAGAAAATTTCATGATGTTAATCGGGTCTTGATTCGCTTGACGCTGCTG”, the binding signal with GST-Ap-NF-kB RHD is -0.544 z-score; in assay [1], -0.239 z-score; with GST-Co-NF-kB it was -0.278 z-score; in the assay with GST-Dm-Relish, 0.57 z-score; with GST-Aq-NF-kB it was 0.226 z-score.

For the sequence “CCGATTAACATCATCTATTAGTCTGATGTTAATCGGGTCTTGATTCGCTTGACGCTGCTG”, the binding signal with GST-Ap-NF-kB RHD is -0.532 z-score; in assay [1], -0.367 z-score; with GST-Co-NF-kB, -0.473 z-score; in the assay with GST-Dm-Relish, -0.726 z-score; in the assay with GST-Aq-NF-kB, -0.337 z-score.

For “CCGATTAACATCACGGCAACTCCTGATGTTAATCGGGTCTTGATTCGCTTGACGCTGCTG”, the binding signal in the assay with GST-Ap-NF-kB RHD is 0.0614 z-score; in assay [1] it was -0.741 z-score; with GST-Co-NF-kB it was -0.327 z-score; with GST-Dm-Relish, -0.557 z-score; with GST-Aq-NF-kB, 0.297 z-score.

Turning to “CCGATTAACATCAAACAATTCGATGATGTTAATCGGGTCTTGATTCGCTTGACGCTGCTG”, the binding signal in the assay with GST-Ap-NF-kB RHD is -0.353 z-score; in assay [1], -0.471 z-score; with GST-Co-NF-kB, -0.416 z-score; with GST-Dm-Relish, -0.397 z-score; with GST-Aq-NF-kB it was -0.248 z-score.

“CCGATTAACATCATAAAACGTTGTGATGTTAATCGGGTCTTGATTCGCTTGACGCTGCTG”: the binding signal with GST-Ap-NF-kB RHD was -0.0786 z-score; in assay [1] it was -0.237 z-score; in the assay with GST-Co-NF-kB it was -0.137 z-score; with GST-Dm-Relish, 0.566 z-score; in the assay with GST-Aq-NF-kB, -0.316 z-score.
